Results reported in the supplement of paper PMC10441789.
This is one part of the list. Antibody binding of pooled human sera (four to six donors per pool; dilution not stated) to peptides of the Trypanosoma cruzi antigen TSSA on microarrays. Quantile-normalised fluorescence in arbitrary units, mean of duplicate arrays; higher = more binding. No active / inactive call. The uninfected pools are read here as the healthy donors of the same country. The strongest signals lie near the top of the scale (about 60,000).

Columns and labels:
Test in all cases: antibody binding signal (normalised fluorescence) (arbitrary fluorescence units); higher = stronger serum antibody binding to peptide
[1] = system: pooled sera of chronic Chagas disease patients, Argentina
Procedure: (§1)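 Microarray of 15-residue peptides over residues 30-55 of Trypanosoma cruzi TSSAII, each with 1 to 10 substitutions at naturally variable positions, probed with one serum pool per country.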

[2] = system: pooled sera of chronic Chagas disease patients, Bolivia
Procedure: as §1

[3] = system: pooled sera of chronic Chagas disease patients, Brazil
Procedure: as §1

[4] = system: pooled sera of chronic Chagas disease patients, Colombia
Procedure: as §1

[5] = system: pooled sera of chronic Chagas disease patients, Mexico
Procedure: as §1

[6] = system: pooled sera of chronic Chagas disease patients, USA
Procedure: as §1

[7] = system: pooled sera of uninfected people, Argentina
Procedure: as §1

[8] = system: pooled sera of uninfected people, Bolivia
Procedure: as §1

[9] = system: pooled sera of uninfected people, Brazil
Procedure: as §1

[10] = system: pooled sera of uninfected people, Colombia
Procedure: as §1

[11] = system: pooled sera of uninfected people, Mexico
Procedure: as §1

[12] = system: pooled sera of uninfected people, USA
Procedure: as §1

Sequence	antibody binding signal [1]	antibody binding signal [2]	antibody binding signal [3]	antibody binding signal [4]	antibody binding signal [5]	antibody binding signal [6]	antibody binding signal [7]	antibody binding signal [8]	antibody binding signal [9]	antibody binding signal [10]	antibody binding signal [11]	antibody binding signal [12]
TDNKAATGEAPSQSG	21900	35500	35000	232	207	26500	210	312	194	121	175	117
SGKENKPATGGTPSP	3470	646	17000	3780	5010	17700	10000	3870	189	358	408	189
DKKAATGETPSQSGA	2230	1580	16800	162	252	10200	356	195	211	695	206	186
TENKAAAGEAPSPPG	33600	749	27000	310	176	12500	125	89.3	141	74.5	95.3	119
TPPSGTDKKAATGEA	20500	12900	28000	4910	37000	2570	322	141	391	451	1700	137
GKDNKAATGGTPSQP	851	256	1930	1550	1570	1190	280	202	133	249	303	80
KENKTAAGGTPSQPG	472	222	448	2990	216	1380	451	90	224	138	799	143
SGKDKKTAAGGAPSP	386	189	277	4380	910	984	139	107	115	236	102	139
PSGTEKKPATGEAPS	47900	43500	47600	1630	2120	40600	1420	833	821	342	636	452
TPPSGKENKPATGEA	33400	35600	30600	410	3410	23000	1750	1790	361	755	374	476
TPPSGKEKKPAAGGT	9910	258	399	1150	32900	791	366	347	475	200	94.8	206
ISTPPSGKDKKTAAG	6370	492	549	581	28100	514	147	330	116	136	84.5	162
KKTAAGGAPSPPGAS	182	220	191	4330	430	533	256	141	141	272	104	252
TPPSGKDKKPAAGGA	11900	597	2760	909	46100	1010	454	269	241	203	91.2	162
GKEKKPAAGGTPSQS	800	166	239	1790	885	1150	127	96.7	521	94.5	116	287
ISTPPSGKDKKPATG	26300	1240	5170	257	52200	902	347	636	132	164	129	119
TDKKAATGGAPSPPG	2260	282	1400	2020	2020	1630	395	414	152	764	146	146
GKEKKTAAGGTPSQP	504	229	469	4500	1110	1940	193	88.2	245	172	264	110
KEKKPATGGAPSPSG	434	333	259	636	2010	932	226	207	101	102	84	288
KDNKAATGGTPSPSG	282	362	296	222	241	287	160	1540	178	178	72.5	251
GTDNKAATGETPSPS	4130	6410	35800	317	213	16100	171	670	917	139	543	3430
EKKPATGGTPSQSGA	1620	406	581	2090	784	397	412	658	1130	232	222	688
GTEKKAAAGEAPSPP	1440	283	5360	846	1150	11800	132	910	121	86.8	109	99.8
KTATGGAPSQPGASS	564	345	791	310	471	228	578	122	150	88.3	193	150
PPSGTENKAAAGGTP	54400	42600	50900	1250	8820	13200	2070	772	1110	1110	289	796

Sequence	antibody binding signal [1]	antibody binding signal [2]	antibody binding signal [3]	antibody binding signal [4]	antibody binding signal [5]	antibody binding signal [6]	antibody binding signal [7]	antibody binding signal [8]	antibody binding signal [9]	antibody binding signal [10]	antibody binding signal [11]	antibody binding signal [12]
NKAAAGETPSQSGAS	271	3410	17600	211	192	352	456	944	358	480	682	812
GTDKKTATGGTPSPS	495	450	635	5110	555	1740	265	210	239	683	110	133
KDKKPAAGGTPSQPG	169	168	206	1680	203	339	201	72.2	1610	131	189	108
SGKEKKPATGGAPSQ	8020	510	4110	2930	3980	4950	283	350	103	127	85.9	215
KENKTATGETPSPPG	535	585	3290	551	269	7070	156	219	221	163	158	1230
SGKENKAAAGGAPSP	3630	1040	18600	8890	4440	20900	6100	1500	117	312	199	170
GKEKKTAAGETPSQP	1460	393	15500	1300	2380	2930	114	102	99.7	266	93.7	119
ENKTAAGETPSQPGA	673	4780	34800	286	232	3650	140	1180	248	315	257	223
KDKKTAAGEAPSPPG	176	236	285	274	194	4030	116	95.2	118	596	84.4	119
PSGKDKKTAAGGTPS	2580	466	2100	8750	4880	4480	123	285	265	131	121	104
PPSGTEKKAATGETP	26400	9240	13100	557	1100	10200	1130	355	515	661	166	239
GKEKKAAAGGTPSPS	3800	198	193	3630	1800	1980	88.4	76.5	490	114	85.4	110
TDNKAATGGTPSQPG	345	1030	6880	1590	477	343	468	278	431	293	1210	89.4
KDNKAAAGEAPSPSG	287	194	9740	194	160	11200	376	1470	133	164	90.8	101
KENKTAAGGTPSQSG	529	318	336	2360	353	1280	306	94.2	259	95	552	152
TPPSGKDNKPATGEA	29700	22500	36700	491	19900	23500	550	922	198	241	360	336
DKKTATGGTPSPPGA	494	751	539	3880	537	1480	281	105	348	734	182	132
NKAATGEAPSQSGAS	14500	41000	39400	190	204	30800	480	797	341	303	557	857
KEKKAATGETPSPPG	789	534	6210	177	202	7390	277	122	103	172	85.3	580
SGKEKKAAAGEAPSQ	7690	2560	6250	4610	9350	11800	199	159	92.8	107	67.3	92.4
GKDKKTAAGGAPSQS	258	244	183	2530	393	381	128	118	109	146	124	110
TDKKAATGEAPSPPG	19500	36400	30000	357	298	21700	646	122	232	481	138	169
GKEKKTAAGEAPSPS	1110	231	342	1150	2010	5080	162	75.5	88.9	290	93.4	55.2
TDNKTATGGAPSQPG	606	2030	3910	613	422	436	303	372	472	187	337	219
ENKPAAGEAPSQPGA	8820	28000	45700	312	276	17300	200	340	177	130	173	176
